Experimental data reported in article PMC8188729 (Nature, 2020).

System: HIV-1 CA mutants
Assay type: cell-based
Conditions: mutant/WT EC50 ratio

SMILES: CC(C)(C#Cc1ccc(-c2ccc(Cl)c3c(NS(C)(=O)=O)nn(CC(F)(F)F)c23)c([C@H](Cc2cc(F)cc(F)c2)NC(=O)Cn2nc(C(F)(F)F)c3c2C(F)(F)[C@@H]2C[C@H]32)n1)S(C)(=O)=O [GS-6207]
- Fold GS-6207 resistance (HIV-1 CA Q67H N74D): 1,099
- Fold GS-6207 resistance (HIV-1 CA Q67H N74S): 32
- Fold GS-6207 resistance (HIV-1 CA Q67H T107N): 62

Read-outs that look alike come from different tables or passages of the source.
